# Some of the results follow. The full chains were built here from the parent and the listed change. Inactive controls read about 0.05.
# B1: TEV protease; numbered along this chain (parent)
# chain: MGESLFKGPRDYNPISSSICHLTNESDGHTTSLYGIGFGPFIITNKHLFRRNNGTLVVQSLHGVFKVKDTTTLQQHLVDGRDMIIIRMPKDFPPFPQKLKFREPQREERICLVTTNFQTKSMSSMVSDTSCTFPSGDGIFWKHWIQTKDGQCGSPLVSTRDGFIVGIHSASNFTNTNNYFTSVPKNFMELLTNQEAQQWVSGWRLNADSVLWGGHKVFMVKPEEPFQPVKEATQL
# Variants of: B1
# Assay: raw area under fraction-flipped curve 0-4 h after induction (AUC4h, not background-subtracted), DNA-recorder readout of cleavage of the substrate (dimensionless); higher = more cleavage of the substrate by the protease variant
# Conditions: temperature: 34 °C; time window: 0-4 h after rhamnose induction
# Experimental: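 In vivo DNA recorder in E. coli TOP10(DE3) ΔrhaA at 34 °C. Each TEVp single-site mutant (parent TEVp 0) is paired with a single-site variant of the 7-mer TEVs (canonical ENLYFQ|S). The substrate sits between flexible linkers in a Bxb1-sfGFP-TEVs-SsrA fusion, so cleavage stabilises Bxb1 and speeds flipping of a recombination array, read by NGS. The value is the raw area under the fraction-flipped curve over 0-4 h after rhamnose induction (AUC4h), with ≥20 reads per time point. It is not background-subtracted; inactive controls average about 0.047.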
# 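Further: Bxb1 expression induced with 0.2% (w/v) L-rhamnose at OD600 near 0.5, cultures sampled hourly, flipped fraction per protease–substrate barcode pair counted by paired-end Illumina sequencing.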
Variant,area with substrate ENAYFQS,area with substrate ENCYFQS,area with substrate ENDYFQS,area with substrate ENEYFQS,area with substrate ENFYFQS,area with substrate ENGYFQS,area with substrate ENHYFQS,area with substrate ENIYFQS,area with substrate ENKYFQS,area with substrate ENMYFQS,area with substrate ENNYFQS,area with substrate ENPYFQS,area with substrate ENQYFQS,area with substrate ENRYFQS,area with substrate ENSYFQS,area with substrate ENVYFQS,area with substrate ENYYFQS,area with substrate ENWYFQS,area with substrate ENTYFQS
MGESLFKGPRDYNPISSSICHLTNESDGHHTSLYGIGFGPFIITNKHLFRRNNGTLVVQSLHGVFKVKDTTTLQQHLVDGRDMIIIRMPKDFPPFPQKLKFREPQREERICLVTTNFQTKSMSSMVSDTSCTFPSGDGIFWKHWIQTKDGQCGSPLVSTRDGFIVGIHSASNFTNTNNYFTSVPKNFMELLTNQEAQQWVSGWRLNADSVLWGGHKVFMVKPEEPFQPVKEATQL [T30H],0.0788,0.0205,0.0631,0.0587,0.0786,0.0472,0.0558,0.077,0.0522,0.0664,0.0523,0.0628,0.0641,0.0785,0.0681,0.0733,0.0542,,
MGESLFKGPRDYNPISSSICHLTNESDGHMTSLYGIGFGPFIITNKHLFRRNNGTLVVQSLHGVFKVKDTTTLQQHLVDGRDMIIIRMPKDFPPFPQKLKFREPQREERICLVTTNFQTKSMSSMVSDTSCTFPSGDGIFWKHWIQTKDGQCGSPLVSTRDGFIVGIHSASNFTNTNNYFTSVPKNFMELLTNQEAQQWVSGWRLNADSVLWGGHKVFMVKPEEPFQPVKEATQL [T30M],0.0556,0.0474,0.0572,0.0612,,,0.0726,,0.0443,,0.0598,0.0628,0.0519,,0.0702,0.0587,,0.0467,
MGESLFKGPRDYNPISSSICHLTNESDGHTTSLYGIGFGPFIITNKTLFRRNNGTLVVQSLHGVFKVKDTTTLQQHLVDGRDMIIIRMPKDFPPFPQKLKFREPQREERICLVTTNFQTKSMSSMVSDTSCTFPSGDGIFWKHWIQTKDGQCGSPLVSTRDGFIVGIHSASNFTNTNNYFTSVPKNFMELLTNQEAQQWVSGWRLNADSVLWGGHKVFMVKPEEPFQPVKEATQL [H47T],0.0676,0.0598,0.0698,0.0557,0.0608,,0.046,0.0645,0.0507,,,0.057,0.0517,,0.065,0.0776,,0.036,
MGESLFKGPRDYNPISSSICHLTNESDGHTTSLPGIGFGPFIITNKHLFRRNNGTLVVQSLHGVFKVKDTTTLQQHLVDGRDMIIIRMPKDFPPFPQKLKFREPQREERICLVTTNFQTKSMSSMVSDTSCTFPSGDGIFWKHWIQTKDGQCGSPLVSTRDGFIVGIHSASNFTNTNNYFTSVPKNFMELLTNQEAQQWVSGWRLNADSVLWGGHKVFMVKPEEPFQPVKEATQL [Y34P],0.0407,0.0505,0.0608,,0.0552,,0.0534,,0.0632,,0.0356,,0.0508,0.0557,0.0584,,,,
MGESLFKGPRDYNPISSSICHLTNESDGHTTSLDGIGFGPFIITNKHLFRRNNGTLVVQSLHGVFKVKDTTTLQQHLVDGRDMIIIRMPKDFPPFPQKLKFREPQREERICLVTTNFQTKSMSSMVSDTSCTFPSGDGIFWKHWIQTKDGQCGSPLVSTRDGFIVGIHSASNFTNTNNYFTSVPKNFMELLTNQEAQQWVSGWRLNADSVLWGGHKVFMVKPEEPFQPVKEATQL [Y34D],0.0464,0.0629,0.0685,,,0.0887,0.0545,,,,0.0577,0.0668,0.0539,,0.0512,,,0.0719,
MGESLFKGPRDYNPISSSICHLTNESDGHTTSLTGIGFGPFIITNKHLFRRNNGTLVVQSLHGVFKVKDTTTLQQHLVDGRDMIIIRMPKDFPPFPQKLKFREPQREERICLVTTNFQTKSMSSMVSDTSCTFPSGDGIFWKHWIQTKDGQCGSPLVSTRDGFIVGIHSASNFTNTNNYFTSVPKNFMELLTNQEAQQWVSGWRLNADSVLWGGHKVFMVKPEEPFQPVKEATQL [Y34T],0.0683,,0.048,0.0617,0.0507,,0.0602,,,,,,0.0621,0.0831,,,0.059,,
MGESLFKGPRDYNPISSSICHLTNESDGHTTSLMGIGFGPFIITNKHLFRRNNGTLVVQSLHGVFKVKDTTTLQQHLVDGRDMIIIRMPKDFPPFPQKLKFREPQREERICLVTTNFQTKSMSSMVSDTSCTFPSGDGIFWKHWIQTKDGQCGSPLVSTRDGFIVGIHSASNFTNTNNYFTSVPKNFMELLTNQEAQQWVSGWRLNADSVLWGGHKVFMVKPEEPFQPVKEATQL [Y34M],0.0684,,0.0503,0.0587,0.0626,,0.062,0.071,,,0.0789,0.0593,0.0591,0.0566,0.0661,0.0535,0.0611,,0.0635
MGESLFKGPRDYNPISSSICHLTNESDGHTTSLYGIDFGPFIITNKHLFRRNNGTLVVQSLHGVFKVKDTTTLQQHLVDGRDMIIIRMPKDFPPFPQKLKFREPQREERICLVTTNFQTKSMSSMVSDTSCTFPSGDGIFWKHWIQTKDGQCGSPLVSTRDGFIVGIHSASNFTNTNNYFTSVPKNFMELLTNQEAQQWVSGWRLNADSVLWGGHKVFMVKPEEPFQPVKEATQL [G37D],0.0345,0.0512,0.0235,,0.0453,,0.0422,,,0.0452,,0.0399,0.0441,,,0.0465,0.0504,,0.0621
MGESLFKGPRDYNPISSSICHLTNESDGHTYSLYGIGFGPFIITNKHLFRRNNGTLVVQSLHGVFKVKDTTTLQQHLVDGRDMIIIRMPKDFPPFPQKLKFREPQREERICLVTTNFQTKSMSSMVSDTSCTFPSGDGIFWKHWIQTKDGQCGSPLVSTRDGFIVGIHSASNFTNTNNYFTSVPKNFMELLTNQEAQQWVSGWRLNADSVLWGGHKVFMVKPEEPFQPVKEATQL [T31Y],0.0602,0.0734,0.0587,0.0687,0.0546,0.0623,0.0515,,0.0592,0.0813,,,,,,,,,0.0564

# — the supplement of paper PMC12217912
